In patent US10626421B2, “Use of uric acid for culturing bacteria sensitive to oxygen tension” (FONDATION MEDITERRANEE INFECTION, priority 2014, dated 2020):

Columns and labels:
Assay in all cases: Comparative aerobic culture on Schaedler 0.2% agar (Table 2)
Details in all cases: 37° C., AA 1 g/L, UA 400 mg/L
[1] = test system: Campylobacter ureolyticus
[2] = test system: Finegoldia magna
[3] = test system: Clostridium glycolicum
[4] = test system: Peptoniphilus harei

## O=C1O[C@H]([C@@H](O)CO)C(O)=C1O [ascorbic acid, reference compound]
[1]
  colonies detected with the naked eye at t=96 h: 0
[2]
  colonies detected with the naked eye at t=96 h: 0
[3]
  colonies detected with the naked eye at t=96 h: 0
[4]
  colonies detected with the naked eye at t=96 h: 0

## O=c1[nH]c(=O)c2[nH]c(=O)[nH]c2[nH]1 [uric acid, 7,9-dihydro-1H-purine-2,6,8(3H)-trione]
[1]
  colonies detected with the naked eye at t=96 h: 0
[2]
  colonies detected with the naked eye at t=96 h: 0
[3]
  colonies detected with the naked eye at t=96 h: Positive
[4]
  colonies detected with the naked eye at t=96 h: 0
